Laboratory results reported in patent publication US20220024991A1 (GENOME PROTECTION, published 2022).

Columns and labels:
[1] = target: T1, human TLR5 (293-hTLR5-LacZ reporter cells) (human, UniProt O60602 21-858); test: cell-based or functional assay
[2] = target: T1, human TLR5 (293-hTLR5-LacZ reporter …); test: cell-based or functional assay; remark: listed apart in the source

T1 sequence (O60602 21-858): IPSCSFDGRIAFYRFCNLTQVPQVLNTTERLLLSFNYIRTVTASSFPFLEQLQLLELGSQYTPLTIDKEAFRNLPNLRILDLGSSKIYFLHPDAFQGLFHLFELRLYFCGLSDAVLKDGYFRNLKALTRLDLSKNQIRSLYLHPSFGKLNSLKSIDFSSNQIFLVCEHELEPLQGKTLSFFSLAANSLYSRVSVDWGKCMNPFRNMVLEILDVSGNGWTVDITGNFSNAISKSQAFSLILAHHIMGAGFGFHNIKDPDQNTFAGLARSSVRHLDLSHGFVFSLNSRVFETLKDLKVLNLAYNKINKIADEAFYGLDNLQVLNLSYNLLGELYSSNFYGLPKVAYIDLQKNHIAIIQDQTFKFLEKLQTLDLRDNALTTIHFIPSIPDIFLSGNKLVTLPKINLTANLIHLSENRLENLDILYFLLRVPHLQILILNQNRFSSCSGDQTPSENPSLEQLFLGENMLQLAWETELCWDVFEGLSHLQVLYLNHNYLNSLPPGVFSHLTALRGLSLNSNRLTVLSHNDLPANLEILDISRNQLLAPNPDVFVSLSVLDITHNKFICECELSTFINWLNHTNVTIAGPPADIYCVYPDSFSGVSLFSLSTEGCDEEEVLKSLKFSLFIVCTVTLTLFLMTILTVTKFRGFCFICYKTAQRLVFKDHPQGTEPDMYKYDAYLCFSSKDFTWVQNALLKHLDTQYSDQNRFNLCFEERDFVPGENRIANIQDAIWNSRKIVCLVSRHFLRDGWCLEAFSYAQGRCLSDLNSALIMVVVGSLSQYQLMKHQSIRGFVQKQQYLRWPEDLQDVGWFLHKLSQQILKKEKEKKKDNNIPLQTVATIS

B1: 491TEMX (ligand)
chain: MSGLRINSAKDDAAGQAAANRATSNIKGLTQASRNAADGISIAQTTEGALNEINNNLQRVRELSVQATAGANADAALKAIQAEIQQRLEEIDRVSQQTQAAAVKVLSQDNAMAIQVGANDGAAITIDLQKIDVKSLGLDGFNVNSPGSTANPLASIDSALSKVDAVRSSLGAIQNRFDSAITNLGNTVTNLNSARSRIEDADYATEVSQMSKAQILDQAGTSTLAQLVPRGSHHHHHHG
EC50, ng/ml (NF-κB reporter enzyme activity) [1]: 0.114 ng/mL
EC50, pM (NF-κB reporter enzyme activity) [1]: 4.35 pM
Mut. EC50/EC50 33MX [1]: 2.66 ratio
Mut. EC50/EC50 CBLB502 [1]: 4.73 ratio
EC50 [2]: 0.188 ng/mL
EC59(TEM)/EC50(33MX) [2]: 2.9 ratio
